Reference: article PMC8399847, “Hybrid Quinolinyl Phosphonates as Heterocyclic Carboxylate Isosteres: Synthesis and Biological Evaluation against Topoisomerase 1B (TOP1B)” (Pharmaceuticals, 2021)
Read-outs that look alike come from different tables or passages of the source.

Experiments:
human TOP1B (hTOP1B) [1] = molecular target: T1, human TOP1B (hTOP1B) (Homo sapiens, UniProt P11387); assay: biochemical
T1 sequence (P11387 1-765): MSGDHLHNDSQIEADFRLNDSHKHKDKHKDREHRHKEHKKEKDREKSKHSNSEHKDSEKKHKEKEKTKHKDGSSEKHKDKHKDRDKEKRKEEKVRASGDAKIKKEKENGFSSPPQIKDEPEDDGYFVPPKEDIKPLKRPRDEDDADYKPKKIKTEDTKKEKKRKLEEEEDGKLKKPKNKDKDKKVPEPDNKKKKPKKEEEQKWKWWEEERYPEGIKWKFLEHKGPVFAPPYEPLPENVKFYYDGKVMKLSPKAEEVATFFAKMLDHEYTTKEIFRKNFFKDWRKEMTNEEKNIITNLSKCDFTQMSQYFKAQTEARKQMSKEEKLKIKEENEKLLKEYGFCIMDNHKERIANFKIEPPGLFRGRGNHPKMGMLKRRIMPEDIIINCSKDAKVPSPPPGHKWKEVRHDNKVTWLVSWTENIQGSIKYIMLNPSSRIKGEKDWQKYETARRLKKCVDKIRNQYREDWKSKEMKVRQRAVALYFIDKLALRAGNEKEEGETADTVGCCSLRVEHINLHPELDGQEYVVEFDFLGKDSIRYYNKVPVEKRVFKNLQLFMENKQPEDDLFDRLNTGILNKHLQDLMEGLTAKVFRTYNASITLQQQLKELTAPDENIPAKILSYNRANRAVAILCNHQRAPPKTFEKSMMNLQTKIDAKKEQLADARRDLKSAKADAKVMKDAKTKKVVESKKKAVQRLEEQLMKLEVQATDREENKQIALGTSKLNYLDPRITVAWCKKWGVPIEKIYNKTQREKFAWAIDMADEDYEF

human TOP1B (hTOP1B) [2] = molecular target: T1, human TOP1B (hTOP1B); details: for % Inhibition hTOP1B 15 seconds (semiquantitative, Table S1): reaction time 15 seconds; for % Inhibition hTOP1B 1 minute (semiquantitative, Table S1): reaction time 1 minute; for % Inhibition hTOP1B 3 minutes (semiquantitative, Table S1): reaction time 3 minutes
[3] = read-out: % Inhibition hTOP1B 15 s
[4] = read-out: % Inhibition hTOP1B 1 min
[5] = read-out: % Inhibition hTOP1B 3 min

| SMILES | inhibition at 100 µM (human TOP1B (hTOP1B) [1]; [3]) [%] | inhibition at 100 µM (human TOP1B (hTOP1B) [1]; [4]) [%] | inhibition at 100 µM (human TOP1B (hTOP1B) [1]; [5]) [%] | % Inhibition hTOP1B 15 seconds (semiquantitative, Table S1) (human TOP1B (hTOP1B) [2]) | % Inhibition hTOP1B 1 minute (semiquantitative, Table S1) (human TOP1B (hTOP1B) [2]) | % Inhibition hTOP1B 3 minutes (semiquantitative, Table S1) (human TOP1B (hTOP1B) [2]) | inhibition of hTOP1B activity (in words) (human TOP1B (hTOP1B) [2]; relaxation gel, 15 s, 1 min, 3 min) |
| --- | --- | --- | --- | --- | --- | --- | --- |
| CCOP(=O)(OCC)c1cccc2c(-c3ccccc3)cc(-c3ccc(OC)cc3)nc12 [7c, Diethyl (2-(4-methoxyphenyl)-4-phenylquinolin-8-yl)phosphonate] | 11 | 9 | 4 | – | – | – | – |
| CCOP(=O)(OCC)c1ccc2nc(-c3ccc(F)cc3)cc(-c3ccccc3)c2c1 [7r, Diethyl (2-(4-fluorophenyl)-4-phenylquinolin-6-yl)phosphonate] | 9 | 15 | 3 | – | – | – | – |
| CCOP(=O)(OCC)c1cccc2c(-c3ccc(F)cc3)cc(-c3ccc(F)cc3)nc12 [7h, Diethyl (2,4-bis(4-fluorophenyl)quinolin-8-yl)phosphonate] | 27 | 19 | 4 | + | + | – | – |
| CCOP(=O)(OCC)c1cccc2c(-c3ccccc3)cc(-c3cccc4ccccc34)nc12 [7f, Diethyl (2-(naphthalen-1-yl)-4-phenylquinolin-8-yl)phosphonate] | 27 | 28 | 8 | + | + | – | – |
| CCOP(=O)(OCC)c1ccc2nc(-c3ccc(F)c(F)c3)cc(-c3ccc(F)cc3)c2c1 [7u, Diethyl (2-(3,4-difluorophenyl)-4-(4-fluorophenyl)quinolin-6-yl)phosphonate] | 27 | 21 | 14 | + | + | + | – |
| CC(C)OP(=O)(OC(C)C)c1cccc2c(-c3ccccc3)cc(-c3ccc(F)c(F)c3)nc12 [7m, Diisopropyl (2-(3,4-difluorophenyl)-4-phenylquinolin-8-yl)phosphonate] | 26 | 32 | 3 | + | + | – | – |
| CCOP(=O)(OCC)c1cccc2c(-c3ccc(F)cc3)cc(-c3ccc(F)c(F)c3)nc12 [7i, Diethyl (2-(3,4-difluorophenyl)-4-(4-fluorophenyl)quinolin-8-yl)phosphonate] | 47 | 37 | 2 | + | + | + | – |
| Cc1ccc(-c2cc(-c3ccc(F)c(F)c3)nc3c(P(=O)(OC(C)C)OC(C)C)cccc23)cc1 [7q, Diisopropyl (2-(3,4-difluorophenyl)-4-(p-tolyl)quinolin-8-yl)phosphonate] | 51 | 35 | 6 | + | + | – | – |
| Cc1ccc(-c2cc(-c3ccc(F)cc3)nc3c(P(=O)(OC(C)C)OC(C)C)cccc23)cc1 [7p, Diisopropyl (2-(4-fluorophenyl)-4-(p-tolyl)quinolin-8-yl)phosphonate] | 32 | 46 | 4 | + | + | – | – |
| CCOP(=O)(OCC)c1ccc2nc(-c3ccc(F)cc3)cc(-c3ccc(C)cc3)c2c1 [7v, Diethyl (2-(4-fluorophenyl)-4-(p-tolyl)quinolin-6-yl)phosphonate] | 22 | 30 | 12 | + | + | + | – |
| CCOP(=O)(OCC)c1ccc2nc(-c3ccc(F)cc3)cc(-c3ccc(F)cc3)c2c1 [7t, Diethyl (2,4-bis(4-fluorophenyl)quinolin-6-yl)phosphonate] | 21 | 18 | 5 | + | + | – | – |
| CCOP(=O)(OCC)c1ccc2nc(-c3ccc(F)c(F)c3)cc(-c3ccc(C)cc3)c2c1 [7x, Diethyl (2-(3,4-difluorophenyl)-4-(p-tolyl)quinolin-6-yl)phosphonate] | 18 | 25 | 5 | – | – | – | – |
| CCOP(=O)(OCC)c1cccc2c(-c3ccc(F)cc3)cc(-c3ccccc3)nc12 [7g] | 28 | 36 | 3 | + | + | – | – |
| CC(C)OP(=O)(OC(C)C)c1cccc2c(-c3ccc(F)cc3)cc(-c3ccc(F)c(F)c3)nc12 [7o, Diisopropyl (2-(3,4-difluorophenyl)-4-(4-fluorophenyl)quinolin-8-yl)phosphonate] | 29 | 27 | 3 | + | + | + | – |
| CC(C)OP(=O)(OC(C)C)c1cccc2c(-c3ccc(F)cc3)cc(-c3ccc(F)cc3)nc12 [7n, Diisopropyl (2,4-bis(4-fluorophenyl)quinolin-8-yl)phosphonate] | 59 | 57 | 7 | – | – | + | – |
| CCOP(=O)(OCC)c1cccc2c(-c3ccc(C)cc3)cc(-c3ccc(F)c(F)c3)nc12 [7k, Diethyl (2-(3,4-difluorophenyl)-4-(p-tolyl)quinolin-8-yl)phosphonate] | 63 | 95 | 5 | – | – | + | – |
| CCOP(=O)(OCC)c1cccc2c(-c3ccc(C)cc3)cc(-c3ccc(F)cc3)nc12 [7j, Diethyl (2-(4-fluorophenyl)-4-(p-tolyl)quinolin-8-yl)phosphonate] | 65 | 67 | 3 | – | – | – | – |
| CCOP(=O)(OCC)c1cccc2c(-c3ccccc3)cc(-c3ccccc3)nc12 [7a, Diethyl (2,4-diphenylquinolin-8-yl)phosphonate] | 20 | 28 | 1 | + | + | + | slight inhibition |
| CCOP(=O)(OCC)c1cccc2c(-c3ccccc3)cc(-c3ccccc3OC)nc12 [7d, Diethyl (2-(2-methoxyphenyl)-4-phenylquinolin-8-yl)phosphonate] | 22 | 16 | 3 | + | + | – | – |
| CCOP(=O)(OCC)c1cccc2c(-c3ccccc3)cc(-c3ccc(F)cc3)nc12 [7b, Diethyl (4-Phenyl-2-(fluorophenyl)quinolin-8-il) phosphonate] | 54 | 61 | 21 | – | – | + | – |
| CC(C)OP(=O)(OC(C)C)c1cccc2c(-c3ccccc3)cc(-c3ccc(F)cc3)nc12 [7l, Diisopropyl (2-(4-fluorophenyl)-4-phenylquinolin-8-yl)phosphonate] | 18 | 13 | 2 | + | – | – | – |
| CCOP(=O)(OCC)c1ccc2nc(-c3ccc(F)c(F)c3)cc(-c3ccccc3)c2c1 [7s, Diethyl (2-(3,4-difluorophenyl)-4-phenylquinolin-6-yl)phosphonate] | 9 | 13 | 2 | – | – | – | – |
| CCOP(=O)(OCC)c1cccc2c(-c3ccccc3)cc(-c3ccc4ccccc4c3)nc12 [7e, Diethyl (2-(naphthalen-2-yl)-4-phenylquinolin-8-yl)phosphonate] | 17 | 36 | 4 | – | – | – | – |
